According to the antibiotic and cytotoxicity screens of Wong et al. (2023):
The list shows a part of the results.

Assays:
HSkMC = human skeletal muscle cells; experiment: cytotoxicity call (relative viability < 0.9); settings: 10 µM
HepG2 = experiment: cytotoxicity call (relative viability < 0.9); settings: 10 µM
S. aureus RN4220 = experiment: growth inhibition call (relative growth <= 0.2); settings: 50 µM

Row | SMILES | cytotoxicity call (HSkMC) | cytotoxicity call (HepG2) | growth inhibition call (S. aureus RN4220)
1 | C[C@@H]1CN([C@H](C)CO)C(=O)Cc2cc(NC(=O)Nc3ccc(F)cc3)ccc2O[C@H]1CN(C)C(=O)Nc1ccc(C(F)(F)F)cc1 | inactive | inactive | inactive
2 | Cc1noc(C)c1NC(=O)Nc1ccc2c(c1)C(=O)N([C@@H](C)CO)C[C@@H](C)[C@@H](CN(C)C(=O)NC(C)C)O2 | inactive | inactive | inactive
3 | CO[C@H]1CN(C)C(=O)c2cc(NS(=O)(=O)c3cn(C)cn3)ccc2OC[C@@H](C)N(CC2CC2)C[C@H]1C | inactive | inactive | inactive
4 | C[C@H](CO)N1C[C@H](C)[C@@H](CN(C)Cc2ccc(C(=O)O)cc2)OCCCC[C@H](C)Oc2ccc(NC(=O)Cc3ccccc3)cc2C1=O | inactive | inactive | inactive
5 | Cc1ccc(S(=O)(=O)Nc2ccc3c(c2)CC(=O)N([C@H](C)CO)C[C@H](C)[C@H](CN(C)C(=O)Nc2ccc(C(F)(F)F)cc2)O3)cc1 | inactive | inactive | inactive
6 | O=C(CCCCCCC(=O)Nc1ccccc1O)N/N=C/c1ccc(N(c2ccccc2)c2ccccc2)cc1 | inactive | active | inactive
7 | COC(=O)c1ccc2c(c1)NC(=O)C2 | inactive | inactive | inactive
8 | COc1cc(OC)cc(-c2ccc(-c3ccc([C@H]4CC(=O)C[C@@H](c5ccccc5)C45C(=O)OC(C)(C)OC5=O)cc3)cc2OC)c1 | inactive | inactive | inactive
9 | C[C@H](CO)N1C[C@H](C)[C@@H](CN(C)C(=O)Nc2ccc3c(c2)OCO3)Oc2ccc(NC(=O)C3CC3)cc2C1=O | inactive | inactive | inactive
10 | Cc1cc(C(=O)Nc2cccc3c2O[C@@H](CN(C)Cc2ccc(C(=O)O)cc2)[C@@H](C)CN([C@H](C)CO)C3=O)n(C)n1 | inactive | inactive | inactive
11 | CO[C@H]1O[C@H](CO)[C@@H](OC(=O)c2ccc(Br)cc2)[C@@H]2OC(=O)[C@@H](Cc3ccc4ccccc4c3)C/C=C/C[C@H](Cc3ccc4ccccc4c3)C(=O)O[C@@H]12 | inactive | inactive | inactive
12 | C[C@H](CO)N1C[C@H](C)[C@@H](CN(C)S(=O)(=O)c2ccc(-n3cccn3)cc2)OCc2cnnn2CCCC1=O | inactive | inactive | inactive
13 | C[C@@H]1CN([C@H](C)CO)C(=O)Cc2cc(NS(=O)(=O)c3cn(C)cn3)ccc2O[C@@H]1CN(C)Cc1ccc(C(=O)O)cc1 | inactive | inactive | inactive
14 | CCC[C@@H]1C[C@@H](C(=O)N[C@H]([C@H]2O[C@H](SC)[C@H](O)[C@@H](O)[C@H]2O)[C@H](C)O)N(C)C1 | inactive | inactive | active
15 | C[C@H]1CN([C@@H](C)CO)C(=O)Cc2cc(NS(=O)(=O)c3ccccc3)ccc2O[C@H]1CN(C)Cc1ccc(-c2ccccc2)cc1 | active | active | inactive
16 | CCN1CCCC1=O | inactive | inactive | inactive
17 | Cc1ccc(S(=O)(=O)Nc2ccc3c(c2)CC(=O)N([C@@H](C)CO)C[C@H](C)[C@@H](CN(C)Cc2ccc(Oc4ccccc4)cc2)O3)cc1 | active | active | inactive
18 | C[C@H](CO)N1C[C@H](C)[C@H](CN(C)S(=O)(=O)c2cccs2)Oc2ccc(NC(=O)CCC(F)(F)F)cc2CC1=O | inactive | inactive | inactive
19 | C[C@@H]1CN([C@@H](C)CO)C(=O)c2cc(NC(=O)Cn3cnnn3)ccc2O[C@@H]1CN(C)Cc1ccc(C(=O)Nc2ccccc2N)cc1 | inactive | inactive | inactive
20 | C[C@H]1CCCCO[C@H](CN(C)Cc2ccncc2)[C@@H](C)CN([C@@H](C)CO)C(=O)c2cc(NC(=O)Cc3ccccc3)ccc2O1 | inactive | inactive | inactive
21 | COc1ccc(S(=O)(=O)N(C)C[C@@H]2OCCCC[C@H](C)Oc3ccc(NS(C)(=O)=O)cc3C(=O)N([C@H](C)CO)C[C@H]2C)cc1 | inactive | inactive | inactive
22 | C[C@H]1CN([C@@H](C)CO)C(=O)Cc2cc(NS(C)(=O)=O)ccc2O[C@@H]1CN(C)C(=O)Nc1ccccc1 | inactive | inactive | inactive
23 | C[C@H]1CN([C@@H](C)CO)S(=O)(=O)c2ccc(C#CC3(O)CCCC3)cc2O[C@@H]1CN(C)C(=O)c1ccncc1 | inactive | inactive | inactive
24 | O=C(C[C@H]1C[C@H]2c3cc(NC(=O)c4ccc5c(c4)OCO5)ccc3O[C@H]2[C@@H](CO)O1)NCc1cccnc1 | inactive | inactive | inactive
25 | C[C@H](CO)N1C[C@H](C)[C@H](CN(C)Cc2ccc(C(=O)Nc3ccccc3N)cc2)Oc2c(NC(=O)Nc3cccc4ccccc34)cccc2C1=O | inactive | active | inactive
